Experimental data taken from a compilation of properties of binary mixtures (doi:10.1021/acs.jced.0c00728).
The densities may have been worked out from excess volumes.

Experiment: xn = mol fraction of the nth substance listed
Details: 100 kPa

CCC(=O)O + CC[n+]1ccn(C)c1.F[B-](F)(F)F
mass density [kg/m3]
Details | 293.15 K | 303.15 K | 313.15 K | 323.15 K | 333.15 K
x2 = 0 | 998 | 988 | – | 966 | 955
x2 = 0.0497 | 1001 | 991 | 982 | 973 | 965
x2 = 0.0888 | 1013 | 1006 | 1001 | 992 | 983
x2 = 0.1876 | – | 1075 | 1073 | 1071 | 1065
x2 = 0.2982 | 1148 | 1146 | – | 1131 | 1123
x2 = 0.3836 | 1176 | – | 1170 | – | 1158
x2 = 0.4908 | – | 1198 | – | 1188 | –
x2 = 0.5907 | – | 1217 | 1208 | – | 1198
x2 = 0.6891 | – | 1231 | 1225 | 1217 | 1210
x2 = 0.78 | 1252 | 1247 | 1239 | 1232 | 1225
x2 = 0.8899 | 1268 | 1261 | 1254 | – | 1239
x2 = 0.9453 | 1275 | 1269 | 1262 | – | –

CC[n+]1ccn(C)c1.F[B-](F)(F)F + CCC(=O)O
x1 = 1
Details | mass density [kg/m3]
303.15 K | 1275
313.15 K | 1267
333.15 K | 1253
